Assay [1] concerns the target KLF5, endogenous (human (endogenous in MDA-MB-468 and SUM149)) (UniProt Q13887). Put plainly: co-IP; endogenous proteins of MDA-MB-468 and SUM149 lysates precipitated with rabbit anti-KLF5 or anti-UCHL1, Protein A Sepharose; detected with mouse anti-UCHL1 or anti-KLF5; rabbit IgG as negative control.
Assay [2] has the same target. Put plainly: co-IP; cells overexpressing UCHL1 (C90S); Supplementary Fig. 3A; which protein was precipitated is not told.
Assay [3] deals with Ubiquitin carboxyl-terminal hydrolase L1 (UCHL1), endogenous (human (endogenous in MDA-MB-468 and SUM149)) (UniProt P09936). In words: co-IP; endogenous proteins of MDA-MB-468 and SUM149 lysates precipitated with rabbit anti-KLF5 or anti-UCHL1, Protein A Sepharose; detected with mouse anti-UCHL1 or anti-KLF5; rabbit IgG as negative control.
Assay [4] concerns the target KLF5-FL2 (313-457), C-terminal 3xFlag tagged (human (from RefSeq NM_001730)) (UniProt Q13887). In words: co-IP; FLAG-tagged full-length KLF5 or fragments and Myc-UCHL1 co-transfected into MDA-MB-468 cells; immunoprecipitation with FLAG-M2 beads.
For assay [5], the target named is KLF5-FL1 (1-312), C-terminal 3xFlag tagged (human (from RefSeq NM_001730)) (UniProt Q13887). The description is as above.
In assay [6] the target is C-terminal 3xFlag tagged full-length KLF5 (human (from RefSeq NM_001730)) (UniProt Q13887). The description is as above.

Protein sequences, listed by entry. Tags and fused reporters are not part of them. Lines headed by an entry give the natural chain unless they say otherwise; changes in a name come on top. Chains listed by the source or under a name are the forms on record and can include a tag or linker. Residues count along the entry.
UniProt Q13887: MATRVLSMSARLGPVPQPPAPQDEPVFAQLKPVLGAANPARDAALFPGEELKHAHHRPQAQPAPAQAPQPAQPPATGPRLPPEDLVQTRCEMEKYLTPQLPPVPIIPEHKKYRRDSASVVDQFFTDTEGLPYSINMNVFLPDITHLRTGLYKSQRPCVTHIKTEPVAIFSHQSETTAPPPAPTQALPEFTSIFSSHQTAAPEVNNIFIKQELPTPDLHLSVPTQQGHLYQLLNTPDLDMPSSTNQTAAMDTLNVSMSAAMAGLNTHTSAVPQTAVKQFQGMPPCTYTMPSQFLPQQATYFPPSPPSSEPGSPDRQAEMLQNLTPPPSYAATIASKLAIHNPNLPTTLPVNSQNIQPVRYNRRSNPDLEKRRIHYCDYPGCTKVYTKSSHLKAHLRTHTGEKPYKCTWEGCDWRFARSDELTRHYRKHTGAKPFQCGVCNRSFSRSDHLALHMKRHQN
KLF5-FL1 (1-312), C-terminal 3xFlag tagged (human (from RefSeq NM_001730)): residues 1-312 of Q13887
KLF5-FL2 (313-457), C-terminal 3xFlag tagged (human (from RefSeq NM_001730)): residues 313-457 of Q13887
UniProt P09936: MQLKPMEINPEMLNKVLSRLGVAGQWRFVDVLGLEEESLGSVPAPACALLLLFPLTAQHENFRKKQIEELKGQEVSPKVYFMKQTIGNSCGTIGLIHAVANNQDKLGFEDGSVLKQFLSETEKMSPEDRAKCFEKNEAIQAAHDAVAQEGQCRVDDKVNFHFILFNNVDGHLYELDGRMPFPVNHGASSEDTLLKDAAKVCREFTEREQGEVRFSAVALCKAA

These are yes or no findings as the source states them, for the method shown. Binding seen in cells or lysates may run through a third protein. Some entries that bind do so weakly or less than the wild type.

Take “Ubiquitin carboxyl-terminal hydrolase L1 (UCHL1), endogenous (from UniProt P09936-1 1-223) (enzyme)”: the binding entry in assay [1] was “binds”.

On to “UCHL1 (C90S) (from UniProt P09936-1 1-223) (enzyme)”, for which, in assay [2], the binding entry is given as “binds”.

Regarding “KLF5, endogenous (from UniProt Q13887-1 1-457)”, the binding result in assay [3] is given as “binds”.

As for “Myc-tagged UCHL1 (from UniProt P09936-1 1-223) (enzyme)”, the binding result in assay [4] is “binds”; in assay [5], “no binding”; in assay [6], “binds”.

These data come from PMC10929172.
